{
  "source": "PubChem BioAssay",
  "note": "The shares of active, inactive and inconclusive entries below differ from those in the screen. The source made the active and inactive calls.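 The calls were made as follows: active = fitted half-maximal concentration for viability loss no higher than twice the top valid dose, in every repeat run; inconclusive = repeat runs disagree, flat partial loss, or poor curve fit; inactive = the rest.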",
  "data": [
    {"assay": "IOSE-T80 viability loss, PAX8-independent line – cell-based, cherry-pick, selectivity assay for PAX8 inhibitor project, dose response (AID 687032);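 also: cells exposed to compound for 96 h before reading; 0% = neutral control wells and -100% = 2 µM mitoxantrone kill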", "details": "CellTiterGlo ATP luminescence, 96 h; at 35 µM (top of the series) unless noted", "values": [
      {"smiles": "Cc1ccc(S(=O)(=O)Nc2ccc3c(c2)C(=O)N([C@@H](C)CO)C[C@@H](C)[C@@H](CN(C)Cc2ccc(C(F)(F)F)cc2)OCCCC[C@@H](C)O3)cc1", "activity change, negative = viability loss": "inactive: -10.6%"},
      {"smiles": "COc1ccc(S(=O)(=O)Nc2ccc3c(c2)C(=O)N([C@H](C)CO)C[C@H](C)[C@@H](CN(C)Cc2ccc(C(F)(F)F)cc2)OCCCC[C@H](C)O3)cc1", "activity change, negative = viability loss": "inconclusive: -3.22%"},
      {"smiles": "Cc1ccc(S(=O)(=O)N(C)C[C@H]2OCCCC[C@@H](C)Oc3ccc(NS(=O)(=O)c4ccc(F)cc4)cc3C(=O)N([C@@H](C)CO)C[C@H]2C)cc1", "activity change, negative = viability loss": "inactive: 6.36% [at 30 µM]"},
      {"smiles": "Cc1ccc(NC(=O)c2c([N+](=O)[O-])c(C(C)(C)C)nn2C)c(C)c1", "activity change, negative = viability loss": "inconclusive: 14.7%"},
      {"smiles": "C[C@@H]1CCCCO[C@@H](CN(C)C(=O)NC2CCCCC2)[C@H](C)CN([C@H](C)CO)C(=O)c2cc(NS(=O)(=O)c3ccc(Cl)cc3)ccc2O1", "activity change, negative = viability loss": "inactive: -2.79%"},
      {"smiles": "C[C@H]1CCCCO[C@H](CN(C)C(=O)C2CCCCC2)[C@@H](C)CN([C@@H](C)CO)C(=O)c2cc(NC(=O)Nc3ccc(F)cc3)ccc2O1", "activity change, negative = viability loss": "inconclusive: 0.15%"},
      {"smiles": "C[C@@H]1CCCCO[C@@H](CN(C)Cc2ccccc2)[C@@H](C)CN([C@H](C)CO)C(=O)c2cc(NC(=O)Nc3ccc(C(F)(F)F)cc3)ccc2O1", "activity change, negative = viability loss": "inactive: 2.73%"},
      {"smiles": "C[C@H]1CN([C@@H](C)CO)C(=O)c2cc(NS(=O)(=O)c3ccccc3)ccc2O[C@@H]1CN(C)Cc1ccc(Oc2ccccc2)cc1", "activity change, negative = viability loss": "inconclusive: 45.1%"},
      {"smiles": "Nc1ccc2c(c1)CC(=O)c1ccccc1S2", "activity change, negative = viability loss": "inconclusive: 6.78%"},
      {"smiles": "C[C@H](O)C#Cc1ccc2c(c1)O[C@H](CN(C)Cc1ccc(-c3ccccc3)cc1)[C@@H](C)CN([C@H](C)CO)S2(=O)=O", "activity change, negative = viability loss": "inactive: 1%"},
      {"smiles": "O=C(Nc1ccc(C(F)(F)F)cc1)Nc1ccc2c(c1)[C@H]1C[C@H](CC(=O)N3CCc4ccccc4C3)O[C@H](CO)[C@H]1O2", "activity change, negative = viability loss": "inconclusive: 5.04%"},
      {"smiles": "COc1ccc(-c2cnc3c(NC=O)cc(-c4ccccc4OC)cn23)cc1OC", "activity change, negative = viability loss": "inconclusive: -48.5%"},
      {"smiles": "C[C@@H]1CN([C@H](C)CO)C(=O)c2cc(NC(=O)Nc3ccc(C(F)(F)F)cc3)ccc2O[C@@H](C)CCCCO[C@@H]1CN(C)C(=O)c1ccccc1", "activity change, negative = viability loss": "inconclusive: 0.834%"},
      {"smiles": "C[C@@H]1CN([C@H](C)CO)C(=O)c2cc(NS(=O)(=O)c3ccccc3)ccc2O[C@@H](C)CCCCO[C@H]1CN(C)Cc1ccc(C(F)(F)F)cc1", "activity change, negative = viability loss": "inactive: 13.1%"},
      {"smiles": "CCC(=O)NC(c1ccc(C)cc1)c1ccc2cccnc2c1O", "note": "(stereo unspecified)", "activity change, negative = viability loss": "inconclusive: 7.9%"},
      {"smiles": "Cc1ccc(S(=O)(=O)Nc2ccc3c(c2)CC(=O)N([C@@H](C)CO)C[C@H](C)[C@@H](CN(C)Cc2ccc(Oc4ccccc4)cc2)O3)cc1", "activity change, negative = viability loss": "inactive: 20.2%"},
      {"smiles": "CC[C@@H](C)[C@H](CNC)NC[C@@H](Cc1cccc2ccccc12)NCCc1cccc(C(F)(F)F)c1", "activity change, negative = viability loss": "inactive: 23%"},
      {"smiles": "CCCCCCN(C(=O)CCl)c1ccccc1", "activity change, negative = viability loss": "inconclusive: 3.64%"},
      {"smiles": "C[C@H]1CN([C@@H](C)CO)C(=O)Cc2cc(NC(=O)NC3CCCCC3)ccc2O[C@H]1CN(C)Cc1ccc(-c2ccccc2)cc1", "activity change, negative = viability loss": "inactive: 9.96%"},
      {"smiles": "COc1ccc(S(=O)(=O)Nc2ccc3c(c2)CC(=O)N([C@@H](C)CO)C[C@@H](C)[C@H](CN(C)Cc2ccc(C(F)(F)F)cc2)O3)cc1", "activity change, negative = viability loss": "inactive: 15.8%"},
      {"smiles": "C[C@@H]1CCCCO[C@@H](CN(C)S(=O)(=O)c2ccc(F)cc2)[C@H](C)CN([C@H](C)CO)C(=O)c2cc(NS(=O)(=O)c3ccc(Cl)cc3)ccc2O1", "activity change, negative = viability loss": "inactive: 11.9%"},
      {"smiles": "O=C(Nc1ccc(N2CCN(C(=O)c3ccccc3)CC2)cc1)c1ccc([N+](=O)[O-])o1", "activity change, negative = viability loss": "inconclusive: 9.66%"},
      {"smiles": "Cc1ccc(-c2ccc([C@H]3[C@@H](CO)N4CCCCN(C(=O)Nc5cccc(F)c5)C[C@H]34)cc2)cc1", "activity change, negative = viability loss": "inactive: 7.52%"},
      {"smiles": "C[C@@H]1CCCCO[C@H](CN(C)S(=O)(=O)c2ccc(F)cc2)[C@H](C)CN([C@@H](C)CO)C(=O)c2cc(NS(=O)(=O)c3ccc(Cl)cc3)ccc2O1", "activity change, negative = viability loss": "inactive: 19.7%"},
      {"smiles": "CCOC(=O)Nc1ccc2c(c1)N(C(=O)CCCl)c1ccccc1[S@]2=O", "activity change, negative = viability loss": "inactive: 3.41%"},
      {"smiles": "Oc1ccc(C[C@H]2CNC(=S)N2CC2CCCN2C[C@H](Cc2ccc(O)cc2)N2C[C@H](Cc3ccc(O)cc3)N(CC3CCCCC3)C2=S)cc1", "note": "(stereo partly specified)", "activity change, negative = viability loss": "inconclusive: 16.4%"}
    ]}
  ]
}
